Assay results published in PMC4336329 (PLoS ONE, 2015).
In all, about 310,000 compounds went through this assay and about 14,000 (4.5%) showed an effect of 50% or more. The effect is printed as a negative number. Some of the results follow.

biological target: human ether-à-go-go-related gene (hERG) potassium channel (human, UniProt Q12809); assay: primary screen, population patch clamp on CHO cells stably expressing hERG
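Also: peak tail current of the secondary pulse compared with the same well before compound.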

Sequence of human ether-à-go-go-related gene (hERG) potassium channel (Q12809 whole entry, looked up): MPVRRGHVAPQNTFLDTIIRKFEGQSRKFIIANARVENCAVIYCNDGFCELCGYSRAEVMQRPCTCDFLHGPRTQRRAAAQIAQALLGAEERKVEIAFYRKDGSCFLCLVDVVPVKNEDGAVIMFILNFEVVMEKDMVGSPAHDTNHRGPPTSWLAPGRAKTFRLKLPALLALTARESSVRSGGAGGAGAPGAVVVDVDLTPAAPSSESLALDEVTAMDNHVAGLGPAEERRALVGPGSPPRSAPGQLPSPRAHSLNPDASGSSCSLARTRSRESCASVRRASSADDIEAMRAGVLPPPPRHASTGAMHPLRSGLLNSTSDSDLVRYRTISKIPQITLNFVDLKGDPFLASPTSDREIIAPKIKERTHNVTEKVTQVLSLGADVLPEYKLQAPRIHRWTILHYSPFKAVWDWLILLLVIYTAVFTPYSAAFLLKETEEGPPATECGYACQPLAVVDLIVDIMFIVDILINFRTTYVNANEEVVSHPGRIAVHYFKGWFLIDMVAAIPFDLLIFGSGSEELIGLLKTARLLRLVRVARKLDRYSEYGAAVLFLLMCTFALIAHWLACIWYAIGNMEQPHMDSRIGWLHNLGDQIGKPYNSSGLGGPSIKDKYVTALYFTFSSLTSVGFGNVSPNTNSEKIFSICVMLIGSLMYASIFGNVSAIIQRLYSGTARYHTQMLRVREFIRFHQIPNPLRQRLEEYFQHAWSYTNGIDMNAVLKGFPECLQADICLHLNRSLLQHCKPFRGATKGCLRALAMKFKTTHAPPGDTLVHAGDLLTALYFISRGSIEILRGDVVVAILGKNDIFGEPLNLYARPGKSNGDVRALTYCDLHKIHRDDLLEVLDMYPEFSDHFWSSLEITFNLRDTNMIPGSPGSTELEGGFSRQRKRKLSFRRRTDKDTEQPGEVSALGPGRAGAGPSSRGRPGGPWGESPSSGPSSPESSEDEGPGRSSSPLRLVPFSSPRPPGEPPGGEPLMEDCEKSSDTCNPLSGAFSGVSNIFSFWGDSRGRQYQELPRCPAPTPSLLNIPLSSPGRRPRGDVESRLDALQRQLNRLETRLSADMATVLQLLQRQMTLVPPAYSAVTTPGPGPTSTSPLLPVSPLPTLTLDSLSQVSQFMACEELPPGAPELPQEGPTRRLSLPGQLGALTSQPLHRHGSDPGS

Row | Structure (SMILES) | hERG current change (%, negative = inhibition) at 10uM [%]
1 | COc1ccc(NC(=O)C2CCCO2)c(OC)c1 (stereo not shown) | 15.3
2 | CCC(C)[C@H](NC(=O)C1CCN(C(=O)[C@H](Cc2ccccc2)NS(=O)(=O)c2ccc(C)cc2)CC1)C(=O)O (stereo partly shown) | 17.6
3 | Cn1c(CSc2nc3ccccc3s2)nnc1SCC(=O)NCc1ccccn1 | 3.84
4 | COCCOC(=O)C1=C(C)NC(=O)NC1c1c(OC)ncnc1OC (stereo not shown) | 15.1
5 | CCCn1c(=O)n(CC(=O)NCC2CCCO2)c(=O)c2c3c(sc21)COC(C)(C)C3 (stereo not shown) | 12.2
6 | CS(=O)(=O)N(CC(=O)N1CCCCCC1)c1ccc2c(c1)OCCO2 | -4.29
7 | Cn1c(=O)c(C(=O)Nc2ccccn2)c(O)c2ccccc21 | 5.7
8 | Cc1ccc(NC(=O)CCOc2ccccc2)cc1S(=O)(=O)Nc1ccccc1Cl | 4.04
9 | O=C(O)c1cc(-c2ccc(Cl)s2)nc2ccccc12 | 58.7
10 | Cc1ccc(NC2=NC(c3ccc(C)cc3)n3c(nc(C)cc3=O)N2)cc1 (stereo not shown) | 28.9
11 | COc1ccc(OCC(=O)NCCc2ccc(S(N)(=O)=O)cc2)cc1 | -10.3
12 | Cn1c(N)c(C(=O)COC(=O)/C=C/c2ccc(Cl)cc2)c(=O)n(C)c1=O | -43.3
13 | CCc1nc2sc(C)c(C)c2c(=O)n1CCO | 11.1
14 | COc1ccc(OC)c(S(=O)(=O)N/N=C\c2c[nH]c3ccccc23)c1 | -2.08
15 | COCc1nnc(NC(=O)c2ccccc2[N+](=O)[O-])s1 | 12.3
16 | O=C(COc1ccc(C(=O)c2ccccc2)cc1)Nc1cccnc1 | 129
17 | COc1ccc(-c2cnnn2-c2ccc(NC(=O)c3ccc(S(=O)(=O)N4CCCCC4)cc3)cc2)cc1OC | 6.76
18 | C/C=C/Cn1c(N2CCCCCC2)nc2c1c(=O)[nH]c(=O)n2C | -5.14
19 | Cn1nnnc1SCC(=O)Nc1cc(C(C)(C)C)nn1-c1ccccc1 | -18.1
20 | CCN(CC)C(=O)/C(=C\c1cccc([N+](=O)[O-])c1)NC(=O)c1ccco1 | -24
21 | CSc1nc2nccc(-c3ccc4c(c3)OCO4)n2n1 | -27.2
22 | COC(=O)c1cc(C#N)c(N2CCOCC2)nc1C | -6.93

Row | Structure (SMILES) | hERG current change (%, negative = inhibition) at 10uM [%]
23 | CCOc1ccccc1C(=O)Nc1cc(C(=O)NCCc2ccccc2)ccc1Cl | -15.8
24 | CC(C)(C)CN1C(N)=NC[C@@H]1Cc1ccccc1 | -3.17
25 | C=CCn1c(SCC(=O)Nc2nnc(CC)s2)nnc1-c1cccnc1 | -20.9
26 | CC(=O)N1CCc2c(sc(NC(=O)CCS(=O)(=O)c3ccccc3)c2C#N)C1 | 12.8
27 | CC(=O)c1sc(-c2ccc(F)cc2F)nc1C | 11.2
28 | NS(=O)(=O)c1ccc(NC(=O)COC(=O)/C=C/c2ccc([N+](=O)[O-])cc2)cc1 | 11.7
29 | CC(=O)Nc1ccccc1C(=O)C(=O)Nc1ccc(C)c(F)c1 | 24.3
30 | COCCn1c(C)cc(C(=O)COC(=O)CCN2C(=O)c3ccccc3C2=O)c1C | 5.58
31 | O=C1Nc2ccc(S(=O)(=O)NCC3CCCO3)c3cccc1c23 (stereo not shown) | -3.92
32 | Cc1ccc(C(=O)OCC(=O)NC(C)C)cc1S(=O)(=O)N1CCOCC1 | 12.1
33 | CCOC(=O)CCCNC(=O)CCNC(=O)c1ccc(OCC)cc1 | 4.59
34 | O=C(NCc1ccccc1Cl)C1CCCN1S(=O)(=O)c1ccc(F)cc1 (stereo not shown) | 6.59
35 | CCCCN1CCN=C1N(C)C | 12
36 | CCC(C)(C)n1nnnc1CN1CCN(c2nc3ccc(C)cc3cc2C#N)CC1 | -6.63
37 | CCOC(=O)c1c(Nc2ccccc2)sc(/C=C2\C=Nc3ccccc32)c1O | 0.585
38 | COc1cccc(C(=O)Nc2cc([N+](=O)[O-])ccc2N2CCN(C)CC2)c1 | -71.7
39 | COc1ccc(S(=O)(=O)Nc2ccc(S(=O)(=O)Nc3cc(C)nc(C)n3)cc2)cc1OC | 23.9
40 | COc1ccc(C)cc1NC(=O)C(OC(=O)CNC(=O)c1ccc(Oc2ccccc2)cc1)c1ccccc1 (stereo not shown) | 10.1
41 | Cc1[nH]c2ccccc2c1C(=O)CSC(=S)N1CCN(C)CC1 | 4.09
42 | COCCn1c(=NC(=O)c2cc(-c3cccs3)nc3ccccc23)sc2cc(S(N)(=O)=O)ccc21 | 5.73
43 | O=C(N/N=C/c1ccsc1)c1ccc2c(c1)OCO2 | 2.91
44 | CCc1ccc(OCCn2ccnc2)cc1 | 5.34

Row | Structure (SMILES) | hERG current change (%, negative = inhibition) at 10uM [%]
45 | COC(=O)C1=C(O)/C(=C/c2ccc(OCC(=O)Nc3ccccc3)cc2)N=C1C | 8.91
46 | Cc1ccccc1NC(=O)c1cccc(S(=O)(=O)N2CCCCC2)c1 | -29.3
47 | O=C(/C=C/c1cccc([N+](=O)[O-])c1)N1CCN(S(=O)(=O)c2cccs2)CC1 | -62.2
48 | CCOC(=O)c1cccc(NC(=O)c2ccc3c(c2)OCO3)c1 | -22.7
49 | CCCCCCCC[n+]1cccc(C(=O)N2c3c(nc(N)[nH]c3=O)NC(C)C2C)c1.[I-] (stereo not shown) | 1.98
50 | N/C(=N\N=C\c1cccc(O)c1)c1nonc1N | 11.8
51 | N#CCc1ccc(NC(=O)Cn2c(=O)oc3ccccc32)cc1 | 13
52 | COc1ccc(-c2ccc(CCC(=O)O)n2Cc2ccco2)cc1 | -4.41
53 | CC(C)CC(=O)Nc1nnc(CCc2ccccc2)s1 | 1.75
54 | N#Cc1ccc(COC(=O)c2cc(=O)c3ccccc3o2)cc1 | 12.9
55 | C/C(CC(=O)Nc1ccc(Cl)c(C(F)(F)F)c1)=N\NC(N)=S | -16.8
56 | COc1cc(/C=C2\CC/C(=C\c3cc(OC)c(O)c(OC)c3)C2=O)cc(OC)c1O | 0.669
57 | O=S(=O)(Cc1ccccc1)N1CCC(c2nc(-c3cccs3)no2)CC1 | -8.76
58 | CC(=O)Oc1ccccc1C1OCCN1C(C)=O (stereo not shown) | 0.847
59 | CS(=O)(=O)N(Cc1ccccc1)c1ccc(C(=O)NCCSc2ccccn2)cc1 | -15.8
60 | Oc1c(Br)cc(Br)cc1CNc1ccc(F)cc1 | 9.71
61 | O=C(Nc1cccc(NS(=O)(=O)c2ccc(S(=O)(=O)NC3CC3)cc2)c1)c1ccccn1 | 0.802
62 | COc1ccc(-c2noc3c2-c2nc(-c4ccc(Br)cc4)sc2CC3)cc1 | 10.7
63 | CCSc1nnc2n(-c3ccc(OC)cc3)c(=O)c3c4c(sc3n12)CCCC4 | -6.75
64 | O=C(COC(=O)C1CC2CCCC(C1)C2=O)NC(=O)c1ccc(OC(F)F)cc1 (stereo not shown) | 23.2
65 | O=C(CSc1nc2[nH]c(=O)cc(O)c2s1)Nc1cccc(Br)c1 | 13.6
66 | COc1ccc(O)c(/C=N/c2nc3ccccc3n2C)c1 | -22.9

Row | Structure (SMILES) | hERG current change (%, negative = inhibition) at 10uM [%]
67 | Cc1ccc(SCCC(=O)Nc2ccc(OCc3ccccc3)cc2)cc1 | 13.4
68 | Cc1nnc(Nc2ccc(Cl)c(C(F)(F)F)c2)[nH]c1=O | 9.01
69 | O=C(Cn1nc(-c2ccccc2)c2ccccc2c1=O)NCC1CCCO1 (stereo not shown) | 9.05
70 | O=C1C2C3C=CC(C3=C3CCCCC3)C2C(=O)N1Cc1ccccc1 (stereo not shown) | 1.43
71 | OCCC1CN(Cc2ccc3nonc3c2)CCN1Cc1ccsc1 (stereo not shown) | -66.1
72 | Cc1nnsc1C(=O)NNc1c(Cl)cccc1Cl | 17.3
73 | CCCNC(=O)CN1C(=O)NC2(CCCc3cc(OC)ccc32)C1=O (stereo not shown) | -7.72
74 | COc1ccc(C(=O)NC(=S)NNC(=O)c2cccc(C)c2)cc1 | 21.5
75 | O=C(c1ccc(F)cc1)N1CCC(N2CCCCCC2)CC1 | -26
76 | NS(=O)(=O)c1ccc(NC(=S)NC(=O)c2ccco2)cc1 | 4.4
77 | Cc1ccc(-n2c(N)c(C(=O)NCc3ccco3)sc2=S)cc1 | -20.4
78 | CN1CCN(c2ccc(Cl)cc2NC(=O)CN2C(=O)NC(C)(c3ccccc3)C2=O)CC1 (stereo not shown) | -23.7
79 | CCCS(=O)(=O)N1CCC(C(=O)NCCN(CC)c2ccccc2)CC1 | -13.5
80 | COc1cccc2cc(C(=O)N3CCN(c4ccc(C)cc4C)CC3)c(=O)oc12 | -6.72
81 | CC(=O)Nc1ccc(NC(=O)COc2ccc(S(=O)(=O)N3CCCC3)cc2C)cc1 | 11.5
82 | CC(C)OCCCNC(=O)C(Cc1ccccc1)NS(=O)(=O)c1ccc2c(c1)CCC(=O)N2 (stereo not shown) | 14.5
83 | Cc1ccc2nc3c(cc2c1)c(NC(=O)C1CCCO1)nn3CC(C)C (stereo not shown) | -7.69
84 | COc1ccc(Nc2nnc(-c3ccc(O)cc3)c3ccccc23)cc1 | -64.8
85 | COC(=O)C(C)Sc1nc2c([nH]c3ccccc32)c(=O)n1C (stereo not shown) | -18.5
86 | Cc1ccc2c(c1)N(CC(=O)N1CCCCC1c1cccnc1)C(=O)CO2 (stereo not shown) | -15.7
87 | OCC1(CCOc2ccccc2)CCN(Cc2ccncc2)CC1 | -41.5
88 | CCOC(=O)Cc1csc(NC(=O)CSc2nnc(-c3ccc(C)cc3)o2)n1 | 5.26
